# Assay results published in the supplement of paper PMC12217912.
# The other results are listed elsewhere or left out. Sequences were assembled here from the parent chain. Values near 0.05 are background.
# B1: TEV protease; numbered along this chain (parent)
# chain: MGESLFKGPRDYNPISSSICHLTNESDGHTTSLYGIGFGPFIITNKHLFRRNNGTLVVQSLHGVFKVKDTTTLQQHLVDGRDMIIIRMPKDFPPFPQKLKFREPQREERICLVTTNFQTKSMSSMVSDTSCTFPSGDGIFWKHWIQTKDGQCGSPLVSTRDGFIVGIHSASNFTNTNNYFTSVPKNFMELLTNQEAQQWVSGWRLNADSVLWGGHKVFMVKPEEPFQPVKEATQL
# Variants of: B1
# Assay: raw area under fraction-flipped curve 0-4 h after induction (AUC4h, not background-subtracted), DNA-recorder readout of cleavage of the substrate (dimensionless); higher = more cleavage of the substrate by the protease variant
# Conditions: temperature: 34 °C; time window: 0-4 h after rhamnose induction
# 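Further: Bxb1 expression induced with 0.2% (w/v) L-rhamnose at OD600 near 0.5, cultures sampled hourly, flipped fraction per protease–substrate barcode pair counted by paired-end Illumina sequencing.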
Variant,area with substrate ENEYFQS,area with substrate ENFYFQS,area with substrate ENKYFQS,area with substrate ENNYFQS,area with substrate ENPYFQS,area with substrate ENQYFQS,area with substrate ENRYFQS,area with substrate ENSYFQS,area with substrate ENTYFQS,area with substrate ENVYFQS
MGESLFKGPRDYNPISSSICHLTNESDGHKTSLYGIGFGPFIITNKHLFRRNNGTLVVQSLHGVFKVKDTTTLQQHLVDGRDMIIIRMPKDFPPFPQKLKFREPQREERICLVTTNFQTKSMSSMVSDTSCTFPSGDGIFWKHWIQTKDGQCGSPLVSTRDGFIVGIHSASNFTNTNNYFTSVPKNFMELLTNQEAQQWVSGWRLNADSVLWGGHKVFMVKPEEPFQPVKEATQL [T30K],0.0749,0.0674,0.0724,0.0724,0.094,0.036,0.0657,0.0579,0.0631,0.0506
MGESLFKGPRDYNPISSSICHLTNESDGHTTSLYGIGFGPFIITNKHLFRRNNGTLVVQSLHGVFKVKDTTTLQQHLVDGRDMIIIRMPKDFPPFPQKLKFREPQREERICLVTTNFQTKSMSSMVSDTSCTFPSGDGIFWKHWIQTKDGQCGSPLVSTRDGFIVGIHSASNFTNTNNYFTAVPKNFMELLTNQEAQQWVSGWRLNADSVLWGGHKVFMVKPEEPFQPVKEATQL [S182A],0.0639,0.0652,–,0.0529,0.0778,0.0079,–,–,–,–
MGESLFKGPRDYNPISSSICHLTNESDGHTTSLYGIGFGPFIITNKHLFRRNNGTLVVQSLHGVFKVKDTTTLQQHLVDGRDMIIIRMPKDFPPFPQKLKFREPQREERICLVTTNFQTKSMSSMVSDTSCTFPSGDGIFWKHWIQTKDGQCGSPLVSTRDGFIVGIHSASNFTNTNNYFTSVPKNFMELLTNQEAQQWVSGWRLNADSVVWGGHKVFMVKPEEPFQPVKEATQL [L211V],0.0568,0.0629,–,–,–,0.0551,–,–,0.0559,0.0835
MGESLFKGPRDYNPISSSICHLTNESDGHTTSLYGIGFGPFIITNKHLFRRNNGTLVVQSLHGVFKMKDTTTLQQHLVDGRDMIIIRMPKDFPPFPQKLKFREPQREERICLVTTNFQTKSMSSMVSDTSCTFPSGDGIFWKHWIQTKDGQCGSPLVSTRDGFIVGIHSASNFTNTNNYFTSVPKNFMELLTNQEAQQWVSGWRLNADSVLWGGHKVFMVKPEEPFQPVKEATQL [V67M],0.0477,–,0.0464,–,0.0654,0.0694,–,–,–,0.0586
MGESLFKGPRDYNPISSSICHLTNESDGHTTSLQGIGFGPFIITNKHLFRRNNGTLVVQSLHGVFKVKDTTTLQQHLVDGRDMIIIRMPKDFPPFPQKLKFREPQREERICLVTTNFQTKSMSSMVSDTSCTFPSGDGIFWKHWIQTKDGQCGSPLVSTRDGFIVGIHSASNFTNTNNYFTSVPKNFMELLTNQEAQQWVSGWRLNADSVLWGGHKVFMVKPEEPFQPVKEATQL [Y34Q],–,–,–,0.0511,–,0.0549,–,–,–,–
MGESLFKGPRDYNPISSSICHLTNESDGHTTSLYGIGFGPFIITNKHLFRRNNGTLVVQSLHGVFKVKDTTTLQQHLVDGRDMIIIRMPKDFPPFPQKLKFREPQREERICLVTTNFQTKSMSSMVSDTSCTFPSGDGIFWKHWIQTKDGQCGSPLVSTRDGFIVGIHSASNFTNTNNYFTSVPKNNMELLTNQEAQQWVSGWRLNADSVLWGGHKVFMVKPEEPFQPVKEATQL [F187N],0.0509,0.0537,0.0464,0.0469,–,–,–,0.0513,0.0808,0.0804
MGESLFKGPRDYNPISSSICHLTNESDGHTTSLYGIGFGPFIITNKHLFRRNNGTLVVQSLHGVFKVKDTTTLQQHLVDGRDMIIIRMPKDFPPFPQKLKFREPQREERICLVTTNFQTKSMSSMVSDTSCTFPSGDGIFWKHWIQTKDGQCGSPLVSTRDGFIVGIHSASNFTNTNNYFTSVPKNCMELLTNQEAQQWVSGWRLNADSVLWGGHKVFMVKPEEPFQPVKEATQL [F187C],–,–,–,–,–,0.0596,–,–,–,0.0647
MGESLFKGPRDYNPISSSICHLTNESDGHTTSLYGIGFGPFIITNKHLFRRNNGTLVVQSLHGVFKVKDTTTLQQHLVDGRDMIIKRMPKDFPPFPQKLKFREPQREERICLVTTNFQTKSMSSMVSDTSCTFPSGDGIFWKHWIQTKDGQCGSPLVSTRDGFIVGIHSASNFTNTNNYFTSVPKNFMELLTNQEAQQWVSGWRLNADSVLWGGHKVFMVKPEEPFQPVKEATQL [I86K],0.0437,0.0415,–,0.0447,–,0.0288,0.0353,–,0.044,0.038
MGESLFKVPRDYNPISSSICHLTNESDGHTTSLYGIGFGPFIITNKHLFRRNNGTLVVQSLHGVFKVKDTTTLQQHLVDGRDMIIIRMPKDFPPFPQKLKFREPQREERICLVTTNFQTKSMSSMVSDTSCTFPSGDGIFWKHWIQTKDGQCGSPLVSTRDGFIVGIHSASNFTNTNNYFTSVPKNFMELLTNQEAQQWVSGWRLNADSVLWGGHKVFMVKPEEPFQPVKEATQL [G8V],0.0633,–,–,–,–,0.0579,–,–,0.0585,0.0852
MGESLFKGPRDYNPISSSICHLTNESDGHTTSLYGIGFGPFIITNKHLFRRNNGTLVVQSLHGVFKVKDTTTLQQHLVDGRDMIIIRMPKDFPPFPQKLKFREPQREERICLVTTNFQTKSMSSMVSDTSCTFPSGDGIFWKHWIQTKDGQCGSPLVSTRDGFIVGIHSASNFTNTNNYFTSVPKNFMELLTIQEAQQWVSGWRLNADSVLWGGHKVFMVKPEEPFQPVKEATQL [N193I],–,0.0503,–,0.0671,–,0.0654,–,0.0706,–,0.0675
MGESLFKGPRDYNPISSSICHLTNESDGHTTSLYGIGFGPFIITNKHLFRRNNGTLVVQDLHGVFKVKDTTTLQQHLVDGRDMIIIRMPKDFPPFPQKLKFREPQREERICLVTTNFQTKSMSSMVSDTSCTFPSGDGIFWKHWIQTKDGQCGSPLVSTRDGFIVGIHSASNFTNTNNYFTSVPKNFMELLTNQEAQQWVSGWRLNADSVLWGGHKVFMVKPEEPFQPVKEATQL [S60D],0.0452,–,–,0.0235,0.0336,0.0489,–,0.0606,0.0431,0.0596
MGESLFKGPRDYNPISSSICHLTNESDGHTTSLYGIGFGPFIITNKHLFRRNNGTLVVQSLHGVFKVKDTTTLQQQLVDGRDMIIIRMPKDFPPFPQKLKFREPQREERICLVTTNFQTKSMSSMVSDTSCTFPSGDGIFWKHWIQTKDGQCGSPLVSTRDGFIVGIHSASNFTNTNNYFTSVPKNFMELLTNQEAQQWVSGWRLNADSVLWGGHKVFMVKPEEPFQPVKEATQL [H76Q],0.0586,0.053,0.0593,0.0698,–,0.0683,–,–,0.0708,0.079

# Same assay, conditions: temperature: 34 °C; time window: 0-4 h after rhamnose induction
Variant,area with substrate ENYYFQS,area with substrate ENHYFQS,area with substrate ENIYFQS,area with substrate ENGYFQS,area with substrate ENDYFQS,area with substrate ENWYFQS,area with substrate ENMYFQS
MGESLFKGPRDYNPISSSICHLTNESDGHKTSLYGIGFGPFIITNKHLFRRNNGTLVVQSLHGVFKVKDTTTLQQHLVDGRDMIIIRMPKDFPPFPQKLKFREPQREERICLVTTNFQTKSMSSMVSDTSCTFPSGDGIFWKHWIQTKDGQCGSPLVSTRDGFIVGIHSASNFTNTNNYFTSVPKNFMELLTNQEAQQWVSGWRLNADSVLWGGHKVFMVKPEEPFQPVKEATQL [T30K],0.0423,–,–,–,–,–,–
MGESLFKGPRDYNPISSSICHLTNESDGHTTSLYGIGFGPFIITNKHLFRRNNGTLVVQSLHGVFKVKDTTTLQQHLVDGRDMIIIRMPKDFPPFPQKLKFREPQREERICLVTTNFQTKSMSSMVSDTSCTFPSGDGIFWKHWIQTKDGQCGSPLVSTRDGFIVGIHSASNFTNTNNYFTAVPKNFMELLTNQEAQQWVSGWRLNADSVLWGGHKVFMVKPEEPFQPVKEATQL [S182A],0.0521,0.0623,0.13,–,–,–,–
MGESLFKGPRDYNPISSSICHLTNESDGHTTSLYGIGFGPFIITNKHLFRRNNGTLVVQSLHGVFKVKDTTTLQQHLVDGRDMIIIRMPKDFPPFPQKLKFREPQREERICLVTTNFQTKSMSSMVSDTSCTFPSGDGIFWKHWIQTKDGQCGSPLVSTRDGFIVGIHSASNFTNTNNYFTSVPKNFMELLTNQEAQQWVSGWRLNADSVVWGGHKVFMVKPEEPFQPVKEATQL [L211V],0.0718,–,–,–,–,–,–
MGESLFKGPRDYNPISSSICHLTNESDGHTTSLYGIGFGPFIITNKHLFRRNNGTLVVQSLHGVFKMKDTTTLQQHLVDGRDMIIIRMPKDFPPFPQKLKFREPQREERICLVTTNFQTKSMSSMVSDTSCTFPSGDGIFWKHWIQTKDGQCGSPLVSTRDGFIVGIHSASNFTNTNNYFTSVPKNFMELLTNQEAQQWVSGWRLNADSVLWGGHKVFMVKPEEPFQPVKEATQL [V67M],–,–,–,0.0668,–,–,–
MGESLFKGPRDYNPISSSICHLTNESDGHTTSLQGIGFGPFIITNKHLFRRNNGTLVVQSLHGVFKVKDTTTLQQHLVDGRDMIIIRMPKDFPPFPQKLKFREPQREERICLVTTNFQTKSMSSMVSDTSCTFPSGDGIFWKHWIQTKDGQCGSPLVSTRDGFIVGIHSASNFTNTNNYFTSVPKNFMELLTNQEAQQWVSGWRLNADSVLWGGHKVFMVKPEEPFQPVKEATQL [Y34Q],–,–,0.0779,0.0608,0.057,0.0527,–
MGESLFKGPRDYNPISSSICHLTNESDGHTTSLYGIGFGPFIITNKHLFRRNNGTLVVQSLHGVFKVKDTTTLQQHLVDGRDMIIIRMPKDFPPFPQKLKFREPQREERICLVTTNFQTKSMSSMVSDTSCTFPSGDGIFWKHWIQTKDGQCGSPLVSTRDGFIVGIHSASNFTNTNNYFTSVPKNNMELLTNQEAQQWVSGWRLNADSVLWGGHKVFMVKPEEPFQPVKEATQL [F187N],–,0.0622,0.0488,0.0501,–,0.0527,0.0515
MGESLFKGPRDYNPISSSICHLTNESDGHTTSLYGIGFGPFIITNKHLFRRNNGTLVVQSLHGVFKVKDTTTLQQHLVDGRDMIIIRMPKDFPPFPQKLKFREPQREERICLVTTNFQTKSMSSMVSDTSCTFPSGDGIFWKHWIQTKDGQCGSPLVSTRDGFIVGIHSASNFTNTNNYFTSVPKNCMELLTNQEAQQWVSGWRLNADSVLWGGHKVFMVKPEEPFQPVKEATQL [F187C],–,0.0705,0.13,–,–,–,–
MGESLFKGPRDYNPISSSICHLTNESDGHTTSLYGIGFGPFIITNKHLFRRNNGTLVVQSLHGVFKVKDTTTLQQHLVDGRDMIIKRMPKDFPPFPQKLKFREPQREERICLVTTNFQTKSMSSMVSDTSCTFPSGDGIFWKHWIQTKDGQCGSPLVSTRDGFIVGIHSASNFTNTNNYFTSVPKNFMELLTNQEAQQWVSGWRLNADSVLWGGHKVFMVKPEEPFQPVKEATQL [I86K],0.0321,0.0662,–,–,–,0.0267,–
MGESLFKGPRDYNPISSSICHLTNESDGHTTSLYGIGFGPFIITNKHLFRRNNGTLVVQSLHGVFKVKDTTTLQQHLVDGRDMIIIRMPKDFPPFPQKLKFREPQREERICLVTTNFQTKSMSSMVSDTSCTFPSGDGIFWKHWIQTKDGQCGSPLVSTRDGFIVGIHSASNFTNTNNYFTSVPKNFMELLTIQEAQQWVSGWRLNADSVLWGGHKVFMVKPEEPFQPVKEATQL [N193I],0.0309,–,–,–,–,–,0.0944
MGESLFKGPRDYNPISSSICHLTNESDGHTTSLYGIGFGPFIITNKHLFRRNNGTLVVQDLHGVFKVKDTTTLQQHLVDGRDMIIIRMPKDFPPFPQKLKFREPQREERICLVTTNFQTKSMSSMVSDTSCTFPSGDGIFWKHWIQTKDGQCGSPLVSTRDGFIVGIHSASNFTNTNNYFTSVPKNFMELLTNQEAQQWVSGWRLNADSVLWGGHKVFMVKPEEPFQPVKEATQL [S60D],0.0229,–,0.0751,–,–,0.0516,–
MGESLFKGPRDYNPISSSICHLTNESDGHTTSLYGIGFGPFIITNKHLFRRNNGTLVVQSLHGVFKVKDTTTLQQQLVDGRDMIIIRMPKDFPPFPQKLKFREPQREERICLVTTNFQTKSMSSMVSDTSCTFPSGDGIFWKHWIQTKDGQCGSPLVSTRDGFIVGIHSASNFTNTNNYFTSVPKNFMELLTNQEAQQWVSGWRLNADSVLWGGHKVFMVKPEEPFQPVKEATQL [H76Q],–,–,0.087,0.0689,0.0508,–,–
